Out of some 45,000 compounds screened, about 65 (0.1%) were called active. Calls come from the whole dose curve; as a rule, active = well fitted activation curve with a large enough effect; inconclusive = small, poorly fitted or top-dose-only effect; inactive = no such curve, though single readings can be large or run the other way. The list shows a part of the results.

The target of the test is Galactocerebrosidase (Homo sapiens) (UniProt P54803). Description: A Novel Cell-Based Assay to Identify Small Molecules for B -Galactocerebrosidase. Note: 0% is about no effect; nearly all actives have a fitted effect of over 65% in size. The conditions noted are these: 145M-Twi-hGALC-G270D cells, HMU-beta-Gal fluorescence, 48 h; series mostly up to 57.5 µM; activation: at the top concentration. In short, it runs like this: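 qHTS, 1536-well; 145M-Twi-hGALC-G270D cells (WT line also made) in DMEM/F12 + 10% FBS; compound incubation on live cells; HMU-β-gal 0.1 mM final, pH 5.2, NaTC; carbonate stop; fluorescence increase = enhanced residual activity.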
Sequence of UniProt P54803 (P54803 whole entry, looked up): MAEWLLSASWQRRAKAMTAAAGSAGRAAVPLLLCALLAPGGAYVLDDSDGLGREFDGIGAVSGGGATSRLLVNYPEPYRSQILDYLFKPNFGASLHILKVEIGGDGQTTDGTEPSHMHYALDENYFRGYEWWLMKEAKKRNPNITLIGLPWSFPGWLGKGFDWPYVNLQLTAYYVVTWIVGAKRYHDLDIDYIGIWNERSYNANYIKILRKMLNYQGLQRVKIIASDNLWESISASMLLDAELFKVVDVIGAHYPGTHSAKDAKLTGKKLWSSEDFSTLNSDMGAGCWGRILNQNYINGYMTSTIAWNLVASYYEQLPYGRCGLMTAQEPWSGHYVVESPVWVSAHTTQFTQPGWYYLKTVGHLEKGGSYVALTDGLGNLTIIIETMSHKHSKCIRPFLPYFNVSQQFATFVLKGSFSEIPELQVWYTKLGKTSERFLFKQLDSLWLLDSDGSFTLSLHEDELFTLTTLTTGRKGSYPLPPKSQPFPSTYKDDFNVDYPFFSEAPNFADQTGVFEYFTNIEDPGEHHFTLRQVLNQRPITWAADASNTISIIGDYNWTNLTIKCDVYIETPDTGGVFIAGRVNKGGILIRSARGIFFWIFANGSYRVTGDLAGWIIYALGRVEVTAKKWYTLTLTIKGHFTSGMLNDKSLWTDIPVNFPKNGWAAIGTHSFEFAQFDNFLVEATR
Turning to `O=C(c1ccccc1)c1ccccc1NC(=O)c1ccccc1C(=O)O`, the “activation” value is inactive: -10.6%. With `Cc1ccc(C)c(NC(=O)C2CCCN(S(=O)(=O)c3ccc4[nH]c(=O)ccc4c3)C2)c1` (stereo not drawn) the figure was inactive: -5.13%; with `Cc1ccc(C(=O)c2oc3ccccc3c2NC(=O)c2cc(-c3ccccc3)on2)cc1F`, inactive: 1.66%; with `CC(=O)c1ccc(N2CCN(C(=O)c3cc4cc5cc(C)ccc5nc4s3)CC2)cc1`, inactive: -13.8%. With `CCN(CC)c1cc(C)c2cc(NC(=O)/C=C/c3ccc(C)cc3)ccc2n1` the figure was inactive: -6.46%. For `CCOc1ccc(CNC(=O)c2c(C)nn(-c3ccc(F)cc3)c2-n2cccc2)cc1`, the “activation” value is inactive: -30%. The figure for `CC(=O)Nc1nonc1-c1nnc(SCC(=O)Nc2ccc(C)cc2C)n1C` is inactive: -5.29%; for `COc1ccc(NC(=O)[C@@H](c2ccccc2)N2Cc3ccccc3C2=O)cc1OC` it is inactive: -15.1%. The figure for `O=C(Nc1ccc(SC(F)F)cc1)c1cc(-c2ccc3c(c2)OCCO3)on1` is inactive: -14.1%; for `Cc1noc(Cn2c(=O)c3cc4c(cc3n(CC(=O)Nc3cccc(Cl)c3)c2=O)OCO4)n1` it is inactive: -8.58%; for `Cc1ccc(CSCC(=O)N2CCN(c3cc(Cl)ccc3C)CC2)cc1` it is inactive: -12.1%.

On to `C=CCNC(N)=S`, for which the “activation” value is inactive: -11%. The figure for `Cc1ccc(-n2nc(C(=O)NCCN(C)C)c(=O)n(C)c2=O)cc1` is inactive: -16.1%. In the case of `CC1CCc2c(sc(NC(=O)COc3ccccc3)c2C(=O)Nc2ccccc2Cl)C1` (stereo not drawn), the “activation” value was inactive: -11.1%. With `CCCCOc1ccc(-c2cc3c(=O)n(CC(=O)Nc4ccc(Cl)cc4Cl)ccn3n2)cc1` the figure was inactive: 3.11%; with `O=C(CSc1nc2c(cnn2-c2ccc(F)cc2)c(=O)[nH]1)Nc1ccc(Br)cc1`, inactive: -13.6%. Turning to `Cn1c(=O)[nH]c(=O)c2c1nc1n(CCO)c(-c3ccccc3)cn21`, the “activation” value is inactive: -8.07%. Consider `CC(=O)c1ccc2c(c1)N(CCCN(C)C)c1ccccc1S2`, for which the “activation” value is inactive: -0.912%. As to `CCOc1cccc2cc(-c3nnc(Nc4ccc(F)c(Cl)c4)s3)c(=O)oc12`, the “activation” value was inactive: -3.64%. With `Cc1ccc(-c2nn(CC(=O)NC3CCCCC3)c3c2cnc2ccc(F)cc23)cc1C` the figure was inactive: -7.07%; with `COc1ccc(C2C(C(N)=O)=C(C)Nc3nc(-c4ccccc4Cl)nn32)cc1` (stereo not drawn), inactive: -14.2%. The figure for `COc1cccc(NC(=O)CC2C(=O)OCCN2Cc2ccccc2)c1` (stereo not drawn) is inactive: -10%; for `Cc1[nH]c2ccccc2c1C(=O)C(=O)NC1CC(=O)N(c2cccc(F)c2)C1` (stereo not drawn) it is inactive: -16%; for `Cc1ccc2oc(C(=O)N(Cc3ccccc3F)C3CCS(=O)(=O)C3)c(C)c2c1` (stereo not drawn) it is inactive: -29.9%.

As for `Cc1cccc(C)c1Nc1c(-c2ccc(Cl)s2)nc2ncccn12`, the “activation” value was inactive: -10.9%. As to `Cc1ccc(Cl)cc1NC(=O)CN(C)S(=O)(=O)c1ccc2c(c1)n(C)c(=O)c(=O)n2C`, the “activation” value is inactive: -7.56%. With `COc1cccc(CNC(=O)c2cc(=O)[nH]c3ccc(S(=O)(=O)N4CCCCC4)cc23)c1` the figure was inactive: -6.88%; with `COc1ccccc1CNC(=O)c1ccc2c(c1)sc1nc(-c3ccc(F)cc3)cn12`, inactive: -8.09%; with `CC(C)C(=O)OC1=CN(Cc2ccccc2)S(=O)(=O)c2ccccc21`, inactive: -8.03%. In the case of `CCN(CC)c1ccc2cc(-c3nc(-c4ccccc4F)no3)c(=O)oc2c1`, the “activation” value is inactive: 1.25%.

In the case of `Cc1ccc(N(C)C(=O)CCS(=O)(=O)c2cc3c(cc2Cl)NC(=O)CO3)cc1`, the “activation” value was inactive: -18.8%. With `COc1cc(NC(=O)NCCN2CCN(c3ccccc3)CC2)cc(OC)c1OC`, the “activation” value was inactive: -11.2%. Consider `Cc1cccc(C(=O)Nc2ccc(S(=O)(=O)N(Cc3ccccc3)c3ccccc3)cc2)c1`, for which the “activation” value was inactive: -22.2%. With `Cc1cccc(NC(=O)CSc2nc3c(sc4ccccc43)c(=O)n2CCCC(=O)NC2CCCC2)c1` the figure was inactive: -15.8%; with `CCO[C@@H]1O[C@H](C(COCc2ccccc2)OCc2ccccc2)[C@H](OCc2ccccc2)[C@H]1O` (stereo partly drawn), inactive: -3.33%; with `Cc1cccc(N2CCN(C(=O)C3CCN(c4ncnc5c4nc4n5CCCCC4)CC3)CC2)c1C`, inactive: 10.6%. The figure for `CCOC(=O)C1CCCN(c2ncnc3c2nnn3C)C1` (stereo not drawn) is inactive: -10.5%. With `O=C(Nc1cccc(C(F)(F)F)c1)c1ccc2snnc2c1` the figure was inactive: -15.9%; with `CC(=O)c1ccc(NC(=O)Cn2c(=O)nc(-c3ccccc3)c3cc(Cl)ccc32)cc1`, inactive: -1.46%. In the case of `CCc1ccc(NC(=O)Nc2nnc(N(C)C3CCCCC3)s2)cc1`, the “activation” value was inactive: 18.3%.

In the case of `CCOc1ccc(-c2nnc(SCC(=O)c3ccc(Br)cc3)n2-c2ccccc2)cc1`, the “activation” value is inactive: 26.7%.

Turning to `O=C(CN1C(=O)CCc2cc(S(=O)(=O)N3CCOCC3)ccc21)NCc1ccc(Cl)cc1`, the “activation” value was inactive: -10.9%. For `CCOc1ccc(CCNC(=O)c2cc3c(s2)-c2c(C)cccc2OC3)cc1`, the “activation” value was inactive: -12.3%. The figure for `Cc1nc2ccn(Cc3cccnc3)c(=O)c2cc1C(=O)Nc1ccc(F)cc1F` is inactive: -10.1%; for `COCCCNC(=O)c1ccc(C)c(-n2c(C)nc3cccnc32)c1` it is inactive: -12.1%. Turning to `COCCn1c(SCC(=O)c2c[nH]c3ccccc23)nc2cc(C(=O)NC(C)C)ccc2c1=O`, the “activation” value is inactive: 4.13%. The figure for `O=S(=O)(Nc1ccc(F)cc1F)c1ccc(-n2cccn2)cc1` is inactive: 1.5%; for `Cc1ccc(OCC(=O)Nc2ccc3nc(SCCOc4ccccc4)sc3c2)cc1` it is inactive: 2.27%.

The record behind these values is PubChem BioAssay AID1159614 (National Center for Advancing Translational Sciences (NCATS), 2016).
